Results on 89 molecules are retold here after PubChem BioAssay AID463173 (ICCB-Longwood Screening Facility, Harvard Medical School, 2010).

Among all 52,000 compounds or so, about 4,300 (8.3%) were called active. Cut-off read from the data, not from the text of the source: active = survival mostly below about 52% (no sharp cut-off); inactive = mostly above about 56%. This is one part of the list.

For this test, the system named is DeltatarO mutant. As to the kind of experiment: growth inhibition of S. aureus wild type versus tarO mutant, primary screen, teichoic acid synthesis inhibitors, RN4220, OD600 (AID 463173). Particulars: OD600, 18 h, stronger effect = lower value, screened at 18.75 µg/mL (by protocol).
`Cc1ccccc1C(=O)Nc1nc2nc(-c3ccccc3)cc(=O)n2[nH]1`: the survival was inactive: 71%.
The result for `Clc1cccc(-n2cc(-c3ccccc3)c3c(N4CCCCC4)ncnc32)c1` reads inactive: 101%; that for `Cc1cc(C)c(/C=C/c2onc(C)c2S(=O)(=O)N2CCC(C(=O)N(C)Cc3ccccc3)CC2)c(C)c1`, inactive: 89%; that for `Cc1ccc(NC(=O)Nc2nnc(N(C)C3CCCCC3)s2)c(Cl)c1`, inactive: 104%.
The result for `O=C1CCS(=O)(=O)CC1` reads inactive: 81%.
The same measure for `Cc1ccc(-n2c(=O)c3c4c(sc3n(Cc3ccccc3C)c2=O)CCC4)cc1C`: inactive: 134%; for `COC(=O)C[n+]1ccc(C)cc1`: inactive: 69%.
Turning to `CCOC(=O)N1CC=C2C(C#N)=C(N)C(C#N)(C#N)C(Cc3ccccc3)C2C1` (centres undefined), the survival is inactive: 77%.
The result for `Cc1ccc(NC(=O)c2oc3ccc(S(=O)(=O)N4CCCCC4)cc3c2C)cc1Cl` reads inactive: 71%.
The result for `CCN(Cc1ccccc1)C(=O)CCc1c(C)nc2c(c(C)nn2-c2ccc(C)c(C)c2)c1C` reads inactive: 95%.
The result for `Cn1c(=O)c2c(-c3ccc(Br)cc3)n(CCc3ccccc3)cc2n(C)c1=O` reads inactive: 89%; that for `CCc1cccc(C)c1NC(=O)Cn1cc2c(n1)CCCC2`, inactive: 99%; that for `CCN1C(C(=O)c2ccccc2)=C(OC(=O)c2ccc(OC)cc2)c2ccccc2S1(=O)=O`, active: 46%.
Consider `CCOC(=O)c1cnc2c(ccc3ccccc32)c1Nc1cccc(C(F)(F)F)c1`, for which the survival is active: 36%.
Consider `Cc1ccc(NC(=O)CCCn2c(=O)c3cccn3c3ccccc32)c(C)c1`, for which the survival is inactive: 49%.
The same measure for `Cc1ccc(C(=O)NCC(c2ccc3c(c2)OCO3)N2CCN(C)CC2)cc1C` (centres undefined): inactive: 71%.
The same measure for `CCc1noc(-c2ccc(NCc3ccccc3)c([N+](=O)[O-])c2)n1`: inactive: 69%; for `COc1ccccc1N1CCN(C(=O)c2cn(C)c3ccc(S(=O)(=O)N(C)C4CCCCC4)cc3c2=O)CC1`: inactive: 83%.
The same measure for `COCCN(Cc1cc2cc3c(cc2nc1Cl)OCO3)C(=O)Nc1ccccc1OC`: inactive: 92%.
With `CCOc1ccc(NC(=O)c2cnn(-c3ccc(C)c(C)c3)c2C2CCN(C(=O)OC(C)(C)C)CC2)cc1`, the survival is inactive: 75%.
In the case of `CCOc1ccc(Nc2nc3c(S(=O)(=O)c4cccc(Cl)c4)nnn3c3ccsc23)cc1`, the survival was inactive: 41%.
The same measure for `CC1=C(C(=O)Nc2ccccc2)C(c2ccc(C(=O)O)cc2)n2ncnc2N1` (centres undefined): inactive: 60%.
The same measure for `CCc1ccc(OCC(=O)N(Cc2ccco2)Cc2ccccc2Cl)cc1`: inactive: 84%; for `COc1ccc2c(c1)c1c(c(=O)n(-c3ccccc3)c(=O)n1CC(=O)NCCC1=CCCCC1)n2C`: inactive: 84%.
The same measure for `Cn1ncc2c(NCc3ccccc3Cl)nc(NCCO)nc21`: inactive: 67%; for `O=C(Nc1ccc(-n2nncc2-c2ccccc2)cc1)c1cccc(F)c1`: inactive: 129%.
Consider `O=C(CN1C(=O)CCn2nc(-c3ccccc3)cc21)NCc1ccc(F)cc1`, for which the survival was inactive: 69%.
For `CCOc1ccc(CNC(=O)C2CCN(S(=O)(=O)c3cn(C)cn3)CC2)cc1`, the survival was inactive: 99%.
The same measure for `N=c1c(C(=O)NCC2CCCO2)cc2c(=O)n3ccccc3nc2n1CCCO` (centres undefined): inactive: 92%; for `COc1ccc(Cn2c(C(=O)O)c(CNCCc3ccco3)c3ccc(C)cc32)cc1`: inactive: 85%; for `COc1ccc(F)cc1S(=O)(=O)NCC(c1ccco1)S(=O)(=O)c1ccc(F)cc1` (centres undefined): inactive: 63%.
The same measure for `CCCn1c(=C(C#N)C#N)s/c(=C2\C=Cc3ccccc3N2CC)c1=O`: inactive: 97%.
The same measure for `CCOc1cc(C(=O)NCCc2csc3nc(-c4ccccc4F)nn23)cc(OCC)c1OCC`: inactive: 80%; for `Cc1nn(CCCC(=O)NCCc2ccc(Cl)cc2)c(=O)c2c1sc1ccccc12`: inactive: 72%; for `Cc1ccccc1OCC(=O)Nc1ccccc1C(=O)OCc1cc(=O)n2ccsc2n1`: inactive: 118%.
`Cc1cc(C(F)F)n2nc(C(=O)Nc3cccc(Cl)c3C)nc2n1`: the survival is inactive: 82%.
The result for `COc1cccc(Cn2c(CNC(=O)CCc3ccccc3)nc3cccnc32)c1` reads inactive: 87%; that for `Cc1c(Cl)cccc1NC(=O)CCS(=O)(=O)c1ccc2c(c1)oc(=O)n2C`, inactive: 99%; that for `CC(C)(C)OC(=O)N1CCN(c2ccc(NC(=O)Cn3nnc(-c4ccccc4)n3)cc2)CC1`, inactive: 80%.
The same measure for `COc1cccc(CNC(=O)CCn2nc(C)c3c(C)n(-c4ccccc4)nc3c2=O)c1`: inactive: 83%; for `Cc1cc(C)cc(NC(=O)Cn2c(=O)n(-c3cc(C)cc(C)c3)c(=O)c3oc4ccccc4c32)c1`: inactive: 63%.
Turning to `CCOC(=O)Cn1c(=O)n(C2CCCCC2)c2nc(-c3ccc(CC)cc3)nc(C(N)=O)c21`, the survival is inactive: 71%.
On to `Cn1nc(C(=O)NCc2cccc(Cl)c2)c2c1-c1ccccc1S(=O)(=O)C2`, for which the survival is inactive: 60%.
Regarding `N#CC1=C(N)N2C(=C(C#N)C13CCCC3)Nc1ccccc12`, the survival was inactive: 86%.
For `COCCNc1c(-c2ccccc2)nc2cc(C)ccn12`, the survival is inactive: 69%.
The result for `Cc1ccccc1N(C)S(=O)(=O)c1nnc(NC(=O)c2ccccc2F)s1` reads active: 27%; that for `COc1ccc(-n2ccnc2SCC(=O)Nc2nnc(C)s2)cc1`, inactive: 123%; that for `COc1cc(CN2CCc3nc(N4CCN(c5ncccn5)CC4)ncc3C2)cc(OC)c1OC`, inactive: 101%.
The result for `COC(=O)C(C)Sc1nc2c(cnn2-c2ccc(F)cc2)c(=O)[nH]1` (centres undefined) reads inactive: 66%; that for `CCOc1cc(C2CC(=O)Nc3cc4c(cc32)OCCO4)ccc1O` (centres undefined), inactive: 92%.
The same measure for `CCOc1ccccc1NS(=O)(=O)c1ccc2c(c1)CC(C)N2C(=O)C1CCC1` (centres undefined): inactive: 71%.
`N#Cc1c(NC(=O)c2cccnc2)sc2c1CCCC2`: the survival is inactive: 90%.
The same measure for `COc1cccc(C(=O)N(Cc2cccnc2)c2nc3c(OC)ccc(C)c3s2)c1OC`: inactive: 73%.
The same measure for `CCOC(=O)c1c(C)c(C(=O)NCc2ccc(OC)cc2)c(C)n1CC`: inactive: 102%; for `COc1ccc(NCc2cc3cc4c(cc3n(CC(=O)Nc3ccc(F)cc3)c2=O)OCCO4)cc1`: inactive: 80%; for `COc1ccc(C2(C(=O)NC(C)C)CCOCC2)cc1`: inactive: 94%.
The result for `O=C(CSc1nc2ccccc2nc1Cc1ccc(Cl)cc1)N1CCCc2ccccc21` reads inactive: 78%; that for `CCCC(=O)C1=C(c2ccc(C)c(C)c2)N(C(=O)CCC)n2c(CC)nnc2S1`, inactive: 89%; that for `NC(=O)c1nsc(C(=O)N(CCc2ccccc2)C(C(=O)NC2CCCC2)c2ccco2)c1N` (centres undefined), inactive: 104%.
Take `CC1CCN(C(=O)c2cc(-c3cccc(Cl)c3)on2)CC1`: the survival was active: -15%.
The result for `COc1ccc(-c2noc(-c3ccc(NCCc4ccccc4)c([N+](=O)[O-])c3)n2)cc1OC` reads inactive: 57%.
Turning to `CCOc1ccc(-c2cc(NC(=O)c3ccc(C)cc3)c(C(=O)OC)s2)cc1`, the survival is inactive: 70%.
The result for `Cc1cc(C)cc(-n2c(SCC(=O)NCC3CCCO3)nc3c([nH]c4ccccc43)c2=O)c1` (centres undefined) reads inactive: 96%.
The result for `COc1ccc2c(c1)-c1nc(NC(=O)c3ccc(C)cc3)sc1CC2` reads active: 5%; that for `CCCC(=O)Nc1ccccc1NC(=O)CCC`, inactive: 74%; that for `CCOc1ccc(NC(=O)Nc2ccc3snnc3c2)cc1`, inactive: 110%.
The same measure for `COc1cccc(CNC(=O)Cc2c(C)c3c(cc(C)c4c(C)coc43)oc2=O)c1`: inactive: 84%.
`Nc1ccccc1OC(=O)C[n+]1ccccc1`: the survival was inactive: 70%.
The result for `COc1ccc(OC)c(CNC(=O)CCCn2nc(C)c3c(C)n(-c4ccc(C)cc4)nc3c2=O)c1` reads inactive: 68%.
Regarding `O=C(Cn1ncc2c3ccccc3n(Cc3ccccc3)c2c1=O)Nc1ccccc1C(F)(F)F`, the survival was inactive: 93%.
Regarding `CC(C)c1ccc(NS(=O)(=O)c2ccc3[nH]cc(C(=O)N4CCCC4)c(=O)c3c2)cc1`, the survival was inactive: 76%.
The same measure for `CCn1ccc2cc(S(=O)(=O)N3CCCN(C(=O)Nc4cc(Cl)ccc4C)CC3)ccc21`: inactive: 79%; for `COc1ccc(OC(C)c2nc3ccccc3[nH]2)cc1` (centres undefined): inactive: 72%.
The same measure for `O=C(Nc1ccc2oc(-c3cccnc3)nc2c1)c1ccc(-c2ccccc2)o1`: active: 45%; for `CCc1ccc(NC(=O)C(=O)NCC(c2cccnc2)N2CCN(C)CC2)cc1` (centres undefined): inactive: 109%; for `Cn1ccc2c(OCC(=O)NCc3ccccc3Cl)cccc2c1=O`: inactive: 89%.
On to `CC(=O)N1CCC2(CC1)OC(=O)C(C)=C2C(=O)NCc1ccc(Cl)cc1`, for which the survival was inactive: 58%.
The result for `CCc1ccc(CNC(=O)c2ccc3nc(C(C)C)oc3c2)cc1` reads inactive: 82%; that for `Cc1nn(-c2nc(-c3ccc(F)cc3)cc(C(F)(F)F)n2)c(C)c1Cl`, active: 5%; that for `COc1cc(C(=O)Nc2ccc(NC(=O)c3ccc(Br)cc3)cc2)cc(OC)c1OC`, inactive: 75%.
For `CCC1CCCCN1C(=O)CSc1nc2c([nH]c3ccccc32)c(=O)n1-c1cccc(OC)c1` (centres undefined), the survival is inactive: 66%.
On to `Cc1ccc(-n2ccnc(NCCc3ccc(S(N)(=O)=O)cc3)c2=O)cc1C`, for which the survival was inactive: 81%.
The same measure for `Cc1oc(-c2cccc(Cl)c2)nc1CSc1nc2ncccc2[nH]1`: inactive: 71%.
The same measure for `Cc1cccc(N2CCN(C(=O)c3cc4c(=O)n(C)c5ccccc5c4s3)CC2)c1C`: active: 47%.
The result for `O=C(O)c1ccc2nc(-c3cc4cc(F)ccc4oc3=O)[nH]c2c1` reads inactive: 117%; that for `COC(=O)c1ccc(Cl)cc1NC(=O)N(C)CCc1c(C)nn(C)c1C`, inactive: 115%; that for `CCOc1ccc(NC(=O)C(=O)NCCc2csc3nc(-c4ccccc4F)nn23)cc1`, active: -1%.
On to `Cc1ccc(CN2CCN(C3CCN(S(=O)(=O)c4ccc(C)cc4)CC3)C(=O)C2=O)cc1`, for which the survival is inactive: 85%.
The same measure for `COc1cc(NC(=O)C(CC(C)C)NS(=O)(=O)c2ccc3c(c2)oc(=O)n3C)c(C(=O)O)cc1OC` (centres undefined): inactive: 121%.
